Results are given in words; binding and its absence hold for the method and conditions named. For some assays here: Binding seen in cells or lysates may run through a third protein. Some results given as binding are weak or reduced against the parent protein; the word gives no strength. Where a sequence is shown, tags or fusion partners need not be part of it.
B1: ARC6-GFP^N (protein, UniProt Q9FIG9 68-801)
chain: ATLVSPPPSIDRPERHVPIPIDFYQVLGAQTHFLTDGIRRAFEARVSKPPQFGFSDDALISRRQILQAACETLSNPRSRREYNEGLLDDEEATVITDVPWDKVPGALCVLQEGGETEIVLRVGEALLKERLPKSFKQDVVLVMALAFLDVSRDAMALDPPDFITGYEFVEEALKLLQEEGASSLAPDLRAQIDETLEEITPRYVLELLGLPLGDDYAAKRLNGLSGVRNILWSVGGGGASALVGGLTREKFMNEAFLRMTAAEQVDLFVATPSNIPAESFEVYEVALALVAQAFIGKKPHLLQDADKQFQQLQQAKVMAMEIPAMLYDTRNNWEIDFGLERGLCALLIGKVDECRMWLGLDSEDSQYRNPAIVEFVLENSNRDDNDDLPGLCKLLETWLAGVVFPRFRDTKDKKFKLGDYYDDPMVLSYLERVEVVQGSPLAAAAAMARIGAEHVKASAMQALQKVFPSRYTDRNSAEPKDVQETVFSVDPVGNNVGRDGEPGVFIAEAVRPSENFETNDYAIRAGVSESSVDETTVEMSVADMLKEASVKILAAGVAIGLISLFSQKYFLKSSSSFQRKDMVSSMESDVATIGSVRADDSEALPRMDARTAENIVSKWQKIKSLAFGPDHRIEMLPEVLDGRMLKIWTDRAAETAQLGLVYDYTLLKLSVDSVTVSADGTRALVEATLEESACLSDLVHPENNATDVRTYTTRYEVFWSKSGWKITEGSVLAS
B2: AtMinD1, full length, yeast two-hybrid fusion (protein, UniProt Q9MBA2 1-326)
chain: MASLRLFSTNHQSLLLPSSLSQKTLISSPRFVNNPSRRSPIRSVLQFNRKPELAGETPRIVVITSGKGGVGKTTTTANVGLSLARYGFSVVAIDADLGLRNLDLLLGLENRVNYTCVEVINGDCRLDQALVRDKRWSNFELLCISKPRSKLPMGFGGKALEWLVDALKTRPEGSPDFIIIDCPAGIDAGFITAITPANEAVLVTTPDITALRDADRVTGLLECDGIRDIKMIVNRVRTDMIKGEDMMSVLDVQEMLGLSLLGVIPEDSEVIRSTNRGFPLVLNKPPTLAGLAFEQAAWRLVEQDSMKAVMVEEEPKKRGFFSFFGG
B3: AtMinD1(R49H), full length, yeast two-hybrid fusion (protein, UniProt Q9MBA2 1-326)
chain: MASLRLFSTNHQSLLLPSSLSQKTLISSPRFVNNPSRRSPIRSVLQFNHKPELAGETPRIVVITSGKGGVGKTTTTANVGLSLARYGFSVVAIDADLGLRNLDLLLGLENRVNYTCVEVINGDCRLDQALVRDKRWSNFELLCISKPRSKLPMGFGGKALEWLVDALKTRPEGSPDFIIIDCPAGIDAGFITAITPANEAVLVTTPDITALRDADRVTGLLECDGIRDIKMIVNRVRTDMIKGEDMMSVLDVQEMLGLSLLGVIPEDSEVIRSTNRGFPLVLNKPPTLAGLAFEQAAWRLVEQDSMKAVMVEEEPKKRGFFSFFGG
B4: AtMinE1-GFP^N (protein, UniProt Q9C4Z7 31-229)
chain: SSSKVDFTGFISNGVNSLETQKCTPGLAISRENTRGQVKVLARNTGDYELSPSPAEQEIESFLYNAINMGFFDRLNLAWKIIFPSHASRRSSNARIAKQRLKMILFSDRCDVSDEAKRKIVNNIIHALSDFVEIESEEKVQLNVSTDGDLGTIYSVTVPVRRVKPEYQDVDEAGTITNVEYKDTRDGSVDVRFDFYVPE
B5: MCD1-GFP^N (protein, UniProt Q8GWA7 53-349)
chain: CKAIGDSSTPDEDIQNTQSDDNVVVVTATTQSDIPHDSEYSISRFRSMVTTLPPVVFLMKKCSVNSIWIGVCITATVLVAAIRAYVVRKSRDNQRAGSVADLVRRGQLRSGDRRGISKSLNYEDPFNNPFVKLDKGSSTVEMCGKVYRLAPVTLTEKEQTIHQKRRSRAYQWKRPTIFLKEGDSIPPDVDPDTVRWIPANHPFATTVSDIDQDLAQNNVYQKQGVPFRIRAEHEAMQKKLEALQNEEKLNNLSIDSQNARDFQRPYKFSAKLEGENIQKNSQENHTGNSSSEETHKS
B6: ARC6, full length, yeast two-hybrid fusion (pGADT7) (protein, UniProt Q9FIG9 1-801)
chain: MEALSHVGIGLSPFQLCRLPPATTKLRRSHNTSTTICSASKWADRLLSDFNFTSDSSSSSFATATTTATLVSPPPSIDRPERHVPIPIDFYQVLGAQTHFLTDGIRRAFEARVSKPPQFGFSDDALISRRQILQAACETLSNPRSRREYNEGLLDDEEATVITDVPWDKVPGALCVLQEGGETEIVLRVGEALLKERLPKSFKQDVVLVMALAFLDVSRDAMALDPPDFITGYEFVEEALKLLQEEGASSLAPDLRAQIDETLEEITPRYVLELLGLPLGDDYAAKRLNGLSGVRNILWSVGGGGASALVGGLTREKFMNEAFLRMTAAEQVDLFVATPSNIPAESFEVYEVALALVAQAFIGKKPHLLQDADKQFQQLQQAKVMAMEIPAMLYDTRNNWEIDFGLERGLCALLIGKVDECRMWLGLDSEDSQYRNPAIVEFVLENSNRDDNDDLPGLCKLLETWLAGVVFPRFRDTKDKKFKLGDYYDDPMVLSYLERVEVVQGSPLAAAAAMARIGAEHVKASAMQALQKVFPSRYTDRNSAEPKDVQETVFSVDPVGNNVGRDGEPGVFIAEAVRPSENFETNDYAIRAGVSESSVDETTVEMSVADMLKEASVKILAAGVAIGLISLFSQKYFLKSSSSFQRKDMVSSMESDVATIGSVRADDSEALPRMDARTAENIVSKWQKIKSLAFGPDHRIEMLPEVLDGRMLKIWTDRAAETAQLGLVYDYTLLKLSVDSVTVSADGTRALVEATLEESACLSDLVHPENNATDVRTYTTRYEVFWSKSGWKITEGSVLAS

What was measured:
[1] = target: T1, AtMinD1_(1)–62-GFP^C (Arabidopsis thaliana) (UniProt Q9MBA2); experiment: split reporter; GFP^C and GFP^N fusions co-expressed (35S promoter) in protoplasts of wild-type Arabidopsis (Col-0); reconstituted GFP fluorescence seen by microscopy
T1 sequence: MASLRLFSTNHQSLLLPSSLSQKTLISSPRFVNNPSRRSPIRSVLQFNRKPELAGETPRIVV

[2] = target: T2, AtMinE1, full length, yeast two-hybrid fusion (pGBKT7) (Arabidopsis thaliana) (UniProt Q9C4Z7); experiment: two-hybrid; Gal4 system (pGADT7/pGBKT7) in S. cerevisiae Y2H Gold; growth on SD without Leu, Trp and His, with or without Aureobasidin A (40 ng/ml), 3-5 days at 28°C
T2 sequence: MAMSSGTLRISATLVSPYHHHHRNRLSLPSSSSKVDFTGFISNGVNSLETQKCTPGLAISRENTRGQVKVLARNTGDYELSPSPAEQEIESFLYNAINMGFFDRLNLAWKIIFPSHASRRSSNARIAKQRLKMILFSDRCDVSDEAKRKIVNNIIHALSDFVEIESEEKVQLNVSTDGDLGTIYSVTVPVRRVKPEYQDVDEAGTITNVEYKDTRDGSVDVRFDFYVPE

[3] = target: T3, MCD1, full length, yeast two-hybrid fusion (pGBKT7) (Arabidopsis thaliana) (UniProt Q8GWA7); experiment: as above
T3 sequence: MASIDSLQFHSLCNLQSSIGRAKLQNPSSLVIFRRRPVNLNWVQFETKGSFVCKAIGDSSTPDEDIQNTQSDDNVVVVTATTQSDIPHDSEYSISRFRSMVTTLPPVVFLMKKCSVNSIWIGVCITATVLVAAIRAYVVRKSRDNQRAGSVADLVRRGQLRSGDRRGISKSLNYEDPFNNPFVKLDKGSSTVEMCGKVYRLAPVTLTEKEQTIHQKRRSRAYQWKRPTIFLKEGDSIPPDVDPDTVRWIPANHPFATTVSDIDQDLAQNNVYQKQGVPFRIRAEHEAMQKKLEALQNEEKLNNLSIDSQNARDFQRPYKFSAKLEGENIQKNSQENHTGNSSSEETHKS

[4] = target: T4, cdm751–62-GFP^C (Arabidopsis thaliana) (UniProt Q9MBA2); experiment: split reporter; GFP^C and GFP^N fusions co-expressed (35S promoter) in protoplasts of wild-type Arabidopsis (Col-0); reconstituted GFP fluorescence seen by microscopy
T4 sequence: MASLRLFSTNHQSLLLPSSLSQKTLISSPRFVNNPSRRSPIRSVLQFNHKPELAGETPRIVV

[5] = target: T5, AtMinD1, full length, yeast two-hybrid fusion (Arabidopsis thaliana) (UniProt Q9MBA2); experiment: two-hybrid; Gal4 system (pGADT7/pGBKT7) in S. cerevisiae Y2H Gold; growth on SD without Leu, Trp and His, with or without Aureobasidin A (40 ng/ml), 3-5 days at 28°C
T5 sequence: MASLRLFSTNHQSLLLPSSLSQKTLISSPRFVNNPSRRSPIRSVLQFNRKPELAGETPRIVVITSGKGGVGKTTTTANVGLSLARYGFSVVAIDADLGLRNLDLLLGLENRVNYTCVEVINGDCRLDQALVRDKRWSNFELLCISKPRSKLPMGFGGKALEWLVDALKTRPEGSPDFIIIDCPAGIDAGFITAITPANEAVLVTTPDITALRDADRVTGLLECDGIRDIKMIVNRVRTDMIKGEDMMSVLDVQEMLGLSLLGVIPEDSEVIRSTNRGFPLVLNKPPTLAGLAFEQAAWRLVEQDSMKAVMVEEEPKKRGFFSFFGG

Binder	binding [1]	binding [2]	also measured
B1	binds	–	–
B2	–	binds weakly	binding [3]: binds
B3	–	binds weakly	–
B4	binds	–	binding [4]: no binding
B5	binds	–	–
B6	–	–	binding [5]: binds

From paper PMC8646090
